From the supplement of paper PMC12230231

Each sequence was assayed on SIVsab (simian immunodeficiency virus of sabaeus monkeys), single-cycle GFP reporter, in CRFK cells (assay: enrichment among infected cells over input (fold); higher = weaker restriction). Settings: library: human / rhesus combinations.
Method: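 Pools of CRFK cells expressing variants of the TRIM5α v1 loop were challenged with the single-cycle reporter, sorted by GFP and sequenced; mean of two replicates.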
“MASGILLNVKEEVTCPICLELLTEPLSLHCGHSFCQACITANHKKSMLYKEGERSCPVCRISYQPENIQPNRHVANIVEKLREVKLSPEEGQKVDHCARHGEKLLLFCQEDSKVICWLCERSQEHRGHHTFLMEEVAQEYHVKLQTALEMLRQKQQEAEKLEADIREEKASWKIQIDYDKTNVSADFEQLREILDWEESNELQNLEKEEEDILKSLTKSETEMVQQTQYMRELISELEHRLQGSMMDLLQGVDGIIKRIENMTLKKPKTFHKNQRRVFRAPDLKGMLDMFRELTDARRYWVDVTLAPNNISHAVIAEDKRQVSSRNPQIMYGARGTLFTFQTLVNFNYCTGVLGSQSITSGKHYWEVDVSKKSAWILGVCAGFQSDAMYNIEQNENYQPKYGYWVIGLQEGVKYSVFQDGSSHTPFAPFIVPLSVIICPDRVGVFVDYEACTVSFFNITNHGFLIYKFSQCSFSKPVFPYLNPRKCTVPMTLCSPSS [rhesus TRIM5α, 332-344 = GARGTLFTFQTLV]” showed an enrichment of 1.27 ± 0.76.
Work on “MASGILLNVKEEVTCPICLELLTEPLSLHCGHSFCQACITANHKKSMLYKEGERSCPVCRISYQPENIQPNRHVANIVEKLREVKLSPEEGQKVDHCARHGEKLLLFCQEDSKVICWLCERSQEHRGHHTFLMEEVAQEYHVKLQTALEMLRQKQQEAEKLEADIREEKASWKIQIDYDKTNVSADFEQLREILDWEESNELQNLEKEEEDILKSLTKSETEMVQQTQYMRELISELEHRLQGSMMDLLQGVDGIIKRIENMTLKKPKTFHKNQRRVFRAPDLKGMLDMFRELTDARRYWVDVTLAPNNISHAVIAEDKRQVSSRNPQIMYQARGTRFTFPTLVNFNYCTGVLGSQSITSGKHYWEVDVSKKSAWILGVCAGFQSDAMYNIEQNENYQPKYGYWVIGLQEGVKYSVFQDGSSHTPFAPFIVPLSVIICPDRVGVFVDYEACTVSFFNITNHGFLIYKFSQCSFSKPVFPYLNPRKCTVPMTLCSPSS [rhesus TRIM5α, 332-344 = QARGTRFTFPTLV]” yielded an enrichment of 1.29 ± 0.63.
For “MASGILLNVKEEVTCPICLELLTEPLSLHCGHSFCQACITANHKKSMLYKEGERSCPVCRISYQPENIQPNRHVANIVEKLREVKLSPEEGQKVDHCARHGEKLLLFCQEDSKVICWLCERSQEHRGHHTFLMEEVAQEYHVKLQTALEMLRQKQQEAEKLEADIREEKASWKIQIDYDKTNVSADFEQLREILDWEESNELQNLEKEEEDILKSLTKSETEMVQQTQYMRELISELEHRLQGSMMDLLQGVDGIIKRIENMTLKKPKTFHKNQRRVFRAPDLKGMLDMFRELTDARRYWVDVTLAPNNISHAVIAEDKRQVSSRNPQIMYGAPGTLYTFPSFTNFNYCTGVLGSQSITSGKHYWEVDVSKKSAWILGVCAGFQSDAMYNIEQNENYQPKYGYWVIGLQEGVKYSVFQDGSSHTPFAPFIVPLSVIICPDRVGVFVDYEACTVSFFNITNHGFLIYKFSQCSFSKPVFPYLNPRKCTVPMTLCSPSS [rhesus TRIM5α, 332-344 = GAPGTLYTFPSFT]”, the enrichment was 0.891 ± 0.16.
“MASGILLNVKEEVTCPICLELLTEPLSLHCGHSFCQACITANHKKSMLYKEGERSCPVCRISYQPENIQPNRHVANIVEKLREVKLSPEEGQKVDHCARHGEKLLLFCQEDSKVICWLCERSQEHRGHHTFLMEEVAQEYHVKLQTALEMLRQKQQEAEKLEADIREEKASWKIQIDYDKTNVSADFEQLREILDWEESNELQNLEKEEEDILKSLTKSETEMVQQTQYMRELISELEHRLQGSMMDLLQGVDGIIKRIENMTLKKPKTFHKNQRRVFRAPDLKGMLDMFRELTDARRYWVDVTLAPNNISHAVIAEDKRQVSSRNPQIMYGAPGTLFPSFVNFNYCTGVLGSQSITSGKHYWEVDVSKKSAWILGVCAGFQSDAMYNIEQNENYQPKYGYWVIGLQEGVKYSVFQDGSSHTPFAPFIVPLSVIICPDRVGVFVDYEACTVSFFNITNHGFLIYKFSQCSFSKPVFPYLNPRKCTVPMTLCSPSS [rhesus TRIM5α, 332-344 = GAPGTLFPSFV]” gave an enrichment of 2.29 ± 1.2.
Work on “MASGILLNVKEEVTCPICLELLTEPLSLHCGHSFCQACITANHKKSMLYKEGERSCPVCRISYQPENIQPNRHVANIVEKLREVKLSPEEGQKVDHCARHGEKLLLFCQEDSKVICWLCERSQEHRGHHTFLMEEVAQEYHVKLQTALEMLRQKQQEAEKLEADIREEKASWKIQIDYDKTNVSADFEQLREILDWEESNELQNLEKEEEDILKSLTKSETEMVQQTQYMRELISELEHRLQGSMMDLLQGVDGIIKRIENMTLKKPKTFHKNQRRVFRAPDLKGMLDMFRELTDARRYWVDVTLAPNNISHAVIAEDKRQVSSRNPQIMYGAPGTRYTFQTFTNFNYCTGVLGSQSITSGKHYWEVDVSKKSAWILGVCAGFQSDAMYNIEQNENYQPKYGYWVIGLQEGVKYSVFQDGSSHTPFAPFIVPLSVIICPDRVGVFVDYEACTVSFFNITNHGFLIYKFSQCSFSKPVFPYLNPRKCTVPMTLCSPSS [rhesus TRIM5α, 332-344 = GAPGTRYTFQTFT]” yielded an enrichment of 1.64 ± 0.94.
In the case of “MASGILLNVKEEVTCPICLELLTEPLSLHCGHSFCQACITANHKKSMLYKEGERSCPVCRISYQPENIQPNRHVANIVEKLREVKLSPEEGQKVDHCARHGEKLLLFCQEDSKVICWLCERSQEHRGHHTFLMEEVAQEYHVKLQTALEMLRQKQQEAEKLEADIREEKASWKIQIDYDKTNVSADFEQLREILDWEESNELQNLEKEEEDILKSLTKSETEMVQQTQYMRELISELEHRLQGSMMDLLQGVDGIIKRIENMTLKKPKTFHKNQRRVFRAPDLKGMLDMFRELTDARRYWVDVTLAPNNISHAVIAEDKRQVSSRNPQIMYGARGTLFTFQSLTNFNYCTGVLGSQSITSGKHYWEVDVSKKSAWILGVCAGFQSDAMYNIEQNENYQPKYGYWVIGLQEGVKYSVFQDGSSHTPFAPFIVPLSVIICPDRVGVFVDYEACTVSFFNITNHGFLIYKFSQCSFSKPVFPYLNPRKCTVPMTLCSPSS [rhesus TRIM5α, 332-344 = GARGTLFTFQSLT]”, the enrichment is reported as 0.779 ± 0.18.
With “MASGILLNVKEEVTCPICLELLTEPLSLHCGHSFCQACITANHKKSMLYKEGERSCPVCRISYQPENIQPNRHVANIVEKLREVKLSPEEGQKVDHCARHGEKLLLFCQEDSKVICWLCERSQEHRGHHTFLMEEVAQEYHVKLQTALEMLRQKQQEAEKLEADIREEKASWKIQIDYDKTNVSADFEQLREILDWEESNELQNLEKEEEDILKSLTKSETEMVQQTQYMRELISELEHRLQGSMMDLLQGVDGIIKRIENMTLKKPKTFHKNQRRVFRAPDLKGMLDMFRELTDARRYWVDVTLAPNNISHAVIAEDKRQVSSRNPQIMYQARGTLFTFPTFVNFNYCTGVLGSQSITSGKHYWEVDVSKKSAWILGVCAGFQSDAMYNIEQNENYQPKYGYWVIGLQEGVKYSVFQDGSSHTPFAPFIVPLSVIICPDRVGVFVDYEACTVSFFNITNHGFLIYKFSQCSFSKPVFPYLNPRKCTVPMTLCSPSS [rhesus TRIM5α, 332-344 = QARGTLFTFPTFV]” the enrichment was 0.207 ± 0.11.
“MASGILLNVKEEVTCPICLELLTEPLSLHCGHSFCQACITANHKKSMLYKEGERSCPVCRISYQPENIQPNRHVANIVEKLREVKLSPEEGQKVDHCARHGEKLLLFCQEDSKVICWLCERSQEHRGHHTFLMEEVAQEYHVKLQTALEMLRQKQQEAEKLEADIREEKASWKIQIDYDKTNVSADFEQLREILDWEESNELQNLEKEEEDILKSLTKSETEMVQQTQYMRELISELEHRLQGSMMDLLQGVDGIIKRIENMTLKKPKTFHKNQRRVFRAPDLKGMLDMFRELTDARRYWVDVTLAPNNISHAVIAEDKRQVSSRNPQIMYGAPGTLFTFPTFVNFNYCTGVLGSQSITSGKHYWEVDVSKKSAWILGVCAGFQSDAMYNIEQNENYQPKYGYWVIGLQEGVKYSVFQDGSSHTPFAPFIVPLSVIICPDRVGVFVDYEACTVSFFNITNHGFLIYKFSQCSFSKPVFPYLNPRKCTVPMTLCSPSS [rhesus TRIM5α, 332-344 = GAPGTLFTFPTFV]” showed an enrichment of 0.464 ± 0.59.
“MASGILLNVKEEVTCPICLELLTEPLSLHCGHSFCQACITANHKKSMLYKEGERSCPVCRISYQPENIQPNRHVANIVEKLREVKLSPEEGQKVDHCARHGEKLLLFCQEDSKVICWLCERSQEHRGHHTFLMEEVAQEYHVKLQTALEMLRQKQQEAEKLEADIREEKASWKIQIDYDKTNVSADFEQLREILDWEESNELQNLEKEEEDILKSLTKSETEMVQQTQYMRELISELEHRLQGSMMDLLQGVDGIIKRIENMTLKKPKTFHKNQRRVFRAPDLKGMLDMFRELTDARRYWVDVTLAPNNISHAVIAEDKRQVSSRNPQIMYQARGTRFTFPTFVNFNYCTGVLGSQSITSGKHYWEVDVSKKSAWILGVCAGFQSDAMYNIEQNENYQPKYGYWVIGLQEGVKYSVFQDGSSHTPFAPFIVPLSVIICPDRVGVFVDYEACTVSFFNITNHGFLIYKFSQCSFSKPVFPYLNPRKCTVPMTLCSPSS [rhesus TRIM5α, 332-344 = QARGTRFTFPTFV]” gave an enrichment of 0.463 ± 0.54.
Sequence “MASGILLNVKEEVTCPICLELLTEPLSLHCGHSFCQACITANHKKSMLYKEGERSCPVCRISYQPENIQPNRHVANIVEKLREVKLSPEEGQKVDHCARHGEKLLLFCQEDSKVICWLCERSQEHRGHHTFLMEEVAQEYHVKLQTALEMLRQKQQEAEKLEADIREEKASWKIQIDYDKTNVSADFEQLREILDWEESNELQNLEKEEEDILKSLTKSETEMVQQTQYMRELISELEHRLQGSMMDLLQGVDGIIKRIENMTLKKPKTFHKNQRRVFRAPDLKGMLDMFRELTDARRYWVDVTLAPNNISHAVIAEDKRQVSSRNPQIMYGARGTLYTFQTLVNFNYCTGVLGSQSITSGKHYWEVDVSKKSAWILGVCAGFQSDAMYNIEQNENYQPKYGYWVIGLQEGVKYSVFQDGSSHTPFAPFIVPLSVIICPDRVGVFVDYEACTVSFFNITNHGFLIYKFSQCSFSKPVFPYLNPRKCTVPMTLCSPSS [rhesus TRIM5α, 332-344 = GARGTLYTFQTLV]” has an enrichment of 0.517 ± 0.099.
“MASGILLNVKEEVTCPICLELLTEPLSLHCGHSFCQACITANHKKSMLYKEGERSCPVCRISYQPENIQPNRHVANIVEKLREVKLSPEEGQKVDHCARHGEKLLLFCQEDSKVICWLCERSQEHRGHHTFLMEEVAQEYHVKLQTALEMLRQKQQEAEKLEADIREEKASWKIQIDYDKTNVSADFEQLREILDWEESNELQNLEKEEEDILKSLTKSETEMVQQTQYMRELISELEHRLQGSMMDLLQGVDGIIKRIENMTLKKPKTFHKNQRRVFRAPDLKGMLDMFRELTDARRYWVDVTLAPNNISHAVIAEDKRQVSSRNPQIMYQARGTLYTFQSLVNFNYCTGVLGSQSITSGKHYWEVDVSKKSAWILGVCAGFQSDAMYNIEQNENYQPKYGYWVIGLQEGVKYSVFQDGSSHTPFAPFIVPLSVIICPDRVGVFVDYEACTVSFFNITNHGFLIYKFSQCSFSKPVFPYLNPRKCTVPMTLCSPSS [rhesus TRIM5α, 332-344 = QARGTLYTFQSLV]” gave an enrichment of 2.25 ± 0.052.
Sequence “MASGILLNVKEEVTCPICLELLTEPLSLHCGHSFCQACITANHKKSMLYKEGERSCPVCRISYQPENIQPNRHVANIVEKLREVKLSPEEGQKVDHCARHGEKLLLFCQEDSKVICWLCERSQEHRGHHTFLMEEVAQEYHVKLQTALEMLRQKQQEAEKLEADIREEKASWKIQIDYDKTNVSADFEQLREILDWEESNELQNLEKEEEDILKSLTKSETEMVQQTQYMRELISELEHRLQGSMMDLLQGVDGIIKRIENMTLKKPKTFHKNQRRVFRAPDLKGMLDMFRELTDARRYWVDVTLAPNNISHAVIAEDKRQVSSRNPQIMYGAPGTRYTFQTLVNFNYCTGVLGSQSITSGKHYWEVDVSKKSAWILGVCAGFQSDAMYNIEQNENYQPKYGYWVIGLQEGVKYSVFQDGSSHTPFAPFIVPLSVIICPDRVGVFVDYEACTVSFFNITNHGFLIYKFSQCSFSKPVFPYLNPRKCTVPMTLCSPSS [rhesus TRIM5α, 332-344 = GAPGTRYTFQTLV]” has an enrichment of 1.6 ± 0.61.

± gives the standard deviation of the averaged measurements. Restriction of a single-cycle SIVsab GFP reporter by TRIM5α v1-loop variants in CRFK cells. Human variants: read share among cells still uninfected after two challenges over input, higher = gained restriction. Rhesus variants: share among infected cells over input, higher = lost restriction. Reporter dose not given per row. No active / inactive call per row; the paper calls a change when both replicates lie above its controls (mean + 2 SD of stop or wild-type variants, or the top frameshift score). Residues outside the varied loop are taken from Swiss-Prot. The paper reads the human single-substitution scores as noise; they and the rhesus combinations repeat poorly (rank correlation 0.3 to 0.4), indel scores repeat only for the top variants, rhesus substitutions well (0.9).
